# Over roughly 33,000 sequences, “E-score (dimensionless, -0.5 to 0.5)” has its median near -0.058; the highest 2% begin near 0.35. This is one part of the list.
# Test system: MvaT
# Experiment: PBM 8-mer E-score (mean of HK and ME arrays) (E-score (dimensionless, -0.5 to 0.5)); higher = stronger relative binding preference; most listed sequences are background and not binding sites
# Method in brief: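 Full-length P. aeruginosa MvaT carrying an N-terminal glutathione S-transferase tag was tested by protein binding microarray following a previously described protocol. Two universal double-stranded 60-mer arrays, ME and HK, were used, each with a constant 25-mer primer region and a variable 35-mer region covering all 8-mers. The rank-based E-score is the mean of the two arrays, parsed with a custom script. Its range runs from -0.5 to 0.5 for each 8-mer.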
row,Sequence,PBM 8-mer E-score
1,CCGCAAAG,-0.132
2,CACGTGAG,-0.25
3,GCTACAAA,0.0198
4,ACGTTGAA,0.0445
5,ATGCAACC,0.0111
6,TGTCAGAA,0.0626
7,AAGTTCGG,0.18
8,AAGAGATG,-0.0906
9,CTGGACCA,-0.177
10,CACTATTC,0.0563
11,CATGCACG,-0.217
12,AAGGATGA,0.0205
13,ATCGGCTC,-0.211
14,ACTTCGAG,-0.0815
15,GGTGCCAA,-0.115
16,ACACTTGG,0.0839
17,AGACGTTA,-0.0883
18,GACCTTGA,-0.138
19,AGGTAGGG,-0.206
20,AAACATCA,0.194
21,AGAATTCC,0.0415
22,CAGACGGG,-0.162

row,Sequence,PBM 8-mer E-score
1,AGGATTGC,-0.0862
2,AAATCCCG,0.00917
3,CAGGGATC,-0.197
4,GACAAATA,0.297
5,AGGACTCG,-0.265
6,TGATTGCA,0.0321
7,ACCCGCAC,-0.0475
8,ATGAGCCA,-0.115
9,CCCCACGC,-0.208
10,CGCCGCTC,-0.268
11,ATGATATC,0.131
12,AATAAGAC,0.252
13,CGTCTAGC,-0.205
14,AAGCCCGA,-0.275
15,CCCGCCTA,-0.181
16,GGATTAAC,0.111
17,ACACAATC,0.0501
18,CGAGAATC,-0.265
19,ATCGACCA,-0.0716
20,TAAGGGAA,0.144
21,CATCCGGC,-0.182
22,TTAAAGAA,0.219

row,Sequence,PBM 8-mer E-score
1,ATTAGATG,0.263
2,CATTCAAC,0.0852
3,CAAATAAG,0.262
4,AGTAACTA,0.274
5,CGTTATAC,0.21
6,CCTCGGCC,-0.271
7,ACACCCAC,-0.036
8,CAGTAATG,0.146
9,TCACTAGA,-0.11
10,CTTAGTCC,0.0516
11,TAGCCGAA,-0.0401
12,TACCGCTA,-0.019
13,CGTGTGGA,-0.0774
14,AGAACCGC,-0.132
15,AGACACTC,-0.161
16,ACTTCAAC,0.256
17,GAGACACA,-0.0772
18,AAAAACTA,0.301
19,ATACTCTA,0.206
20,GTCGCCGA,-0.124
21,AACCCGTC,-0.0101
22,GCAGTAAC,-0.0164

row,Sequence,PBM 8-mer E-score
1,AAAGATAC,0.0547
2,AGAGGGGC,-0.265
3,GCTGTAAC,0.00489
4,AATCACCC,-0.116
5,AAGGCAAC,0.0918
6,ACGGGACA,-0.0659
7,CAGATTTA,0.238
8,AAGGTCGC,-0.148
9,ACAGATCT,-0.0219
10,CTATTCAG,0.000141
11,ACCGCCTC,-0.258
12,ATATATCA,0.427
13,AATTGAGG,0.157
14,AAGATCCT,-0.18
15,GCCCAAGA,-0.225
16,AGTTGGCC,0.017
17,GCTTCCAC,-0.205
18,CGGGCGCC,-0.289
19,ATGCCAGA,-0.158
20,GTGCATAA,0.193

# Source: the supplement of paper PMC4466236
